# Laboratory results published in the supplement of paper PMC8728848.
# The list shows a part of the results.
# B1: OrfX (Escherichia coli), Q9X4B6_ECOLX (protein)
# chain: MIKIARIAVTLGLLSSLGAQAYAAGLVVNDNDLRNDLAWLSDRGVIHLSLSTWPLSQEEIARALKKAKPSYSSEQVVLARINQRLSALKADFRVTGYTSTDQPGTPQGFGQTQPADNSLGLAFNNSGEWWDVHLQGNVEGGERISNGSRFNANGAYGAVKFWNQWLSFGQVPQWWGPGYEGSLIRGDAMRPMTGFLMQRAEQAAPETWWLRWVGPWQYQISASQMNQYTAVPHAKIIGGRFTFTPFQSLELGASRIMQWGGEGRPQSFSSFWDGFTGHDNTGTDNEPGNQLAGFDFKFKLEPTLGWPVSFYGQMVGEDESGYLPSANMFLGGVEGHHGWGKDTVNWYVEAHDTRTNMSRTNYSYTHHIYKDGYYQQGYPLGDAMGGDGQLIAGKVELITEDNQRWSTRLVYAKVNPENQSINKAFPHADTLKGLQLGWSGDVYQSVRLNTSLWYTNANNSDSDDVGASAGIEIPFSL
# Assays:
# Assay in all cases: glycan array binding signal (z-score within array); higher = stronger binding
# Conditions in all cases: glycan notation: IUPAC condensed, linker removed
# [1] = target: Neu5Ac(a2-6)Gal(b1-4)GlcNAc(b1-2)Man(a1-6)[Man(a1-3)]Man(b1-4)GlcNAc(b1-4)GlcNAc
# Procedure, shortened: (§1)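 Glycan array data were curated from 3228 arrays in the Consortium for Functional Glycomics database and kept only where the protein sequence was available. Glycan names were converted to IUPAC-condensed notation, and columns mapping to the same glycan were averaged. The binding signal is a within-array Z-score, averaged across arrays of the same protein sequence at different concentrations or buffers and across linkers. Negative Z-scores can be read as non-binding.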
# [2] = target: Neu5Ac(a2-6)Gal(b1-4)GlcNAc(b1-3)Gal(b1-3)GlcNAc
# Procedure, shortened: as §1
# [3] = target: Neu5Ac(a2-6)Gal(b1-4)GlcNAc(b1-3)Gal(b1-4)GlcNAc
# Procedure, shortened: as §1
# [4] = target: Neu5Ac(a2-6)Gal(b1-4)GlcNAc(b1-3)Gal(b1-4)GlcNAc(b1-3)Gal(b1-4)GlcNAc
# Procedure, shortened: as §1
# [5] = target: Neu5Ac(a2-6)Gal(b1-4)GlcNAc(b1-3)Gal(b1-4)[Fuc(a1-3)]GlcNAc(b1-3)Gal(b1-4)[Fuc(a1-3)]GlcNAc
# Procedure, shortened: as §1
# [6] = target: Neu5Ac(a2-6)Gal(b1-4)GlcNAc(b1-3)GalNAc
# Procedure, shortened: as §1
# [7] = target: Neu5Ac(a2-6)Gal(b1-4)GlcNAc(b1-3)[Neu5Ac(a2-6)Gal(b1-4)GlcNAc(b1-6)]GalNAc
# Procedure, shortened: as §1
# [8] = target: Neu5Ac(a2-6)Gal(b1-4)GlcNAc(b1-6)GalNAc
# Procedure, shortened: as §1
# [9] = target: Neu5Ac(a2-6)Gal(b1-4)GlcNAc(b1-6)[Gal(b1-3)GlcNAc(b1-3)]Gal(b1-4)Glc
# Procedure, shortened: as §1
# [10] = target: Neu5Ac(a2-6)Gal(b1-4)GlcNAc6S
# Procedure, shortened: as §1
# [11] = target: Neu5Ac(a2-6)GalNAc
# Procedure, shortened: as §1
# [12] = target: Neu5Ac(a2-6)GalNAc(b1-4)GlcNAc
# Procedure, shortened: as §1
# [13] = target: Neu5Ac(a2-6)GalNAc(b1-4)GlcNAc6S
# Procedure, shortened: as §1
# [14] = target: Neu5Ac(a2-6)GlcNAc(b1-4)GlcNAc
# Procedure, shortened: as §1
# [15] = target: Neu5Ac(a2-6)GlcNAc(b1-4)GlcNAc(b1-4)GlcNAc
# Procedure, shortened: as §1
# [16] = target: Neu5Ac(a2-8)Neu5Ac
# Procedure, shortened: as §1
# [17] = target: Neu5Ac(a2-8)Neu5Ac(a2-3)Gal(b1-3)GalNAc(b1-4)[Neu5Ac(a2-8)Neu5Ac(a2-3)]Gal(b1-4)Glc
# Procedure, shortened: as §1
# [18] = target: Neu5Ac(a2-8)Neu5Ac(a2-3)Gal(b1-4)Glc
# Procedure, shortened: as §1
# [19] = target: Neu5Ac(a2-8)Neu5Ac(a2-3)[Gal(b1-3)GalNAc(b1-4)]Gal(b1-4)Glc
# Procedure, shortened: as §1
# [20] = target: Neu5Ac(a2-8)Neu5Ac(a2-3)[GalNAc(b1-4)]Gal(b1-4)Glc
# Procedure, shortened: as §1
# [21] = target: Neu5Ac(a2-8)Neu5Ac(a2-8)Neu5Ac
# Procedure, shortened: as §1
# [22] = target: Neu5Ac(a2-8)Neu5Ac(a2-8)Neu5Ac(a2-3)Gal(b1-4)Glc
# Procedure, shortened: as §1
# [23] = target: Neu5Ac(a2-8)Neu5Ac(a2-8)Neu5Ac(a2-3)[GalNAc(b1-4)]Gal(b1-4)Glc
# Procedure, shortened: as §1
# [24] = target: Neu5Ac(a2-8)Neu5Ac(a2-8)Neu5Ac(a2-8)Neu5Ac(a2-3)[GalNAc(b1-4)]Gal(b1-4)Glc
# Procedure, shortened: as §1
# [25] = target: Neu5Ac(b2-6)Gal(b1-4)GlcNAc
# Procedure, shortened: as §1
# [26] = target: Neu5Ac(b2-6)GalNAc
# Procedure, shortened: as §1
# [27] = target: Neu5Ac9Ac(a2-3)Gal(b1-3)GlcNAc
# Procedure, shortened: as §1
# [28] = target: Neu5Ac9Ac(a2-3)Gal(b1-4)GlcNAc
# Procedure, shortened: as §1
# [29] = target: Neu5Ac9Ac(a2-6)Gal(b1-4)GlcNAc
# Procedure, shortened: as §1
# [30] = target: Neu5Gc(a2-3)Gal(b1-3)GlcNAc
# Procedure, shortened: as §1
# [31] = target: Neu5Gc(a2-3)Gal(b1-3)[Fuc(a1-4)]GlcNAc
# Procedure, shortened: as §1
# [32] = target: Neu5Gc(a2-3)Gal(b1-4)Glc
# Procedure, shortened: as §1
# [33] = target: Neu5Gc(a2-3)Gal(b1-4)GlcNAc
# Procedure, shortened: as §1
# [34] = target: Neu5Gc(a2-3)Gal(b1-4)[Fuc(a1-3)]GlcNAc
# Procedure, shortened: as §1
# [35] = target: Neu5Gc(a2-6)Gal(b1-4)GlcNAc
# Procedure, shortened: as §1
# [36] = target: Neu5Gc(a2-6)GalNAc
# Procedure, shortened: as §1
# [37] = target: Neu5Gc(b2-6)Gal(b1-4)GlcNAc
# Procedure, shortened: as §1
binder,measurement,setting,value
B1,glycan array binding signal (z-score),[1],-0.298
same,glycan array binding signal (z-score),[2],-0.328
same,glycan array binding signal (z-score),[3],-0.05
same,glycan array binding signal (z-score),[4],-0.288
same,glycan array binding signal (z-score),[5],-0.292
same,glycan array binding signal (z-score),[6],0.36
same,glycan array binding signal (z-score),[7],-0.196
same,glycan array binding signal (z-score),[8],3.4
same,glycan array binding signal (z-score),[9],-0.382
same,glycan array binding signal (z-score),[10],-0.224
same,glycan array binding signal (z-score),[11],-0.124
same,glycan array binding signal (z-score),[12],-0.2
same,glycan array binding signal (z-score),[13],-0.259
same,glycan array binding signal (z-score),[14],-0.189
same,glycan array binding signal (z-score),[15],-0.271
same,glycan array binding signal (z-score),[16],-0.167
same,glycan array binding signal (z-score),[17],-0.409
same,glycan array binding signal (z-score),[18],-0.319
same,glycan array binding signal (z-score),[19],-0.2
same,glycan array binding signal (z-score),[20],-0.358
same,glycan array binding signal (z-score),[21],-0.166
same,glycan array binding signal (z-score),[22],-0.305
same,glycan array binding signal (z-score),[23],-0.388
same,glycan array binding signal (z-score),[24],0.018
same,glycan array binding signal (z-score),[25],-0.213
same,glycan array binding signal (z-score),[26],-0.166
same,glycan array binding signal (z-score),[27],-0.162
same,glycan array binding signal (z-score),[28],-0.165
same,glycan array binding signal (z-score),[29],-0.223
same,glycan array binding signal (z-score),[30],-0.125
same,glycan array binding signal (z-score),[31],-0.152
same,glycan array binding signal (z-score),[32],-0.186
same,glycan array binding signal (z-score),[33],-0.386
same,glycan array binding signal (z-score),[34],-0.187
same,glycan array binding signal (z-score),[35],-0.233
same,glycan array binding signal (z-score),[36],-0.211
same,glycan array binding signal (z-score),[37],-0.101
